{
  "source": "PubChem BioAssay AID686979",
  "about": "(National Center for Advancing Translational Sciences (NCATS), 2013)",
  "note": "Where “and” joins values, the source holds several entries; their conditions need not be identical. Equal values may be shown once. Screen size: about 420,000 compounds; about 50,000 (12%) were called active. The shares of active, inactive and inconclusive entries below differ from those in the screen. The call rests on the fitted dose curve; in most records, active means well fitted inhibition curve with a large enough effect; inconclusive means small, poorly fitted or top-dose-only effect; inactive means flat fitted curve, though single readings scatter. Where the call is inconclusive, the potency comes from a doubtful curve fit. On the % scale 0 is the no-effect control and ±100 the full control effect; potency means the concentration at half of the fitted maximal effect; tags describe the fitted curve by direction and shape.",
  "data": [
    {"test": "qHTS for Inhibitors of human tyrosyl-DNA phosphodiesterase 1 (TDP1): qHTS in cells in presence of CPT; further: nearly all actives have a fitted effect of over 55% in size", "settings": "chicken DT40 Tdp1-/-;hTDP1 cells + 20 nM CPT, ATP luminescence, 48 h; activity change, negative = growth inhibition: at 46.2 µM (top of the series) unless noted", "method_in_brief": "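Chicken DT40 Tdp1-/- cells stably complemented with human TDP1 were seeded at 400 cells/well in medium containing 20 nM camptothecin, exposed to pin-transferred compounds, and grown at 37 °C for at least 48 hr. Viability was read as ATP luminescence.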", "values": [
      {"smiles": "CCn1cc(-c2n[nH]c(=S)n2-c2ccc(C)cc2Br)c(=O)c2ccc(C)nc21", "activity change, negative = growth inhibition": "inactive: -23.7%"},
      {"smiles": "COc1cc(NC(=O)C2=CC(c3ccc(C)cc3)=NS(=O)(=O)N2C)cc(OC)c1OC", "Potency": "inconclusive: 29.1 µM [inhibitor, single point]"},
      {"smiles": "CC(=O)c1ccc(OCC(O)CN2CC(C)OC(C)C2)cc1", "note": "(stereo not drawn)", "activity change, negative = growth inhibition": "inactive: 3.63%"},
      {"smiles": "COc1ccc(-c2cc(C(=O)Nc3ccccc3N3CCOCC3)c3ccccc3n2)cc1OC", "Potency": "active: 7.31 µM"},
      {"smiles": "CCOCCCn1c(=S)[nH]c2cc(C(=O)NCCc3ccccc3)ccc2c1=O", "activity change, negative = growth inhibition": "inconclusive: -31.5% [inhibitor]"},
      {"smiles": "O=C1c2ccc3c4c(ccc(c24)C(=O)N1c1cccc(O)c1)C(=O)N(c1cccc(O)c1)C3=O", "Potency": "active: 4.11 µM"},
      {"smiles": "O=C(C[C@H]1C(=O)N(C2CCCCC2)C[C@@H]1Cc1ccccc1)Nc1ccccc1", "Potency": "inconclusive: 22.4 µM [inhibitor, partial curve, poor fit] and inconclusive: 18.4 µM [inhibitor, single point]"},
      {"smiles": "COc1ccc(OC)c(-c2nn(-c3ccccc3)cc2C(=O)NCC(c2ccco2)N2CCCC2)c1", "note": "(stereo not drawn)", "Potency": "inconclusive: 20.6 µM [inhibitor, single point]"},
      {"smiles": "Brc1ccc(CSc2ccc3nnc(-c4cccnc4)n3n2)cc1", "Potency": "inconclusive: 18.4 µM [inhibitor, single point]"},
      {"smiles": "CCCCn1c(N)c(N(CCOC)C(=O)c2ccc(S(=O)(=O)N(CC)c3ccccc3)cc2)c(=O)[nH]c1=O", "activity change, negative = growth inhibition": "inactive: -23.2%"},
      {"smiles": "c1cnc(Nc2nc(-c3ccc4ccccc4c3)cs2)nc1", "Potency": "active: 29.1 µM"},
      {"smiles": "COCCCn1c(=O)c2sccc2n2c(CCCC(=O)Nc3ccc(F)c(F)c3)nnc12", "Potency": "inconclusive: 11.6 µM [inhibitor, partial curve]"},
      {"smiles": "Cc1ccc2nc(-c3ccccc3)cc(C(=O)N(C)CC(=O)Nc3ccccc3Br)c2c1", "Potency": "inconclusive: 25.9 µM [inhibitor, single point]"},
      {"smiles": "O=C1C=C(c2ccc(-c3ccccc3)c(F)c2)C[C@@H](c2ccc3c(c2)OCO3)C1", "Potency": "inconclusive: 29.1 µM [inhibitor, single point]"},
      {"smiles": "Cc1cccc(C(=O)Nc2ccc(C(=O)/C=C/c3ccncc3)cc2)c1", "Potency": "inconclusive: 4.61 µM [inhibitor, single point]"},
      {"smiles": "O=C(CSc1nnc(-c2ccco2)o1)N1CCCCC1", "activity change, negative = growth inhibition": "inactive: -18.4%"},
      {"smiles": "O=C(NC1CCCCC1)c1cc2cc(Br)ccc2o1", "Potency": "inconclusive: 32.6 µM [inhibitor, partial curve, poor fit]"},
      {"smiles": "COC(=O)[C@@]12CCCCN1[C@H](c1ccc(-c3ccc(OC)cc3)c(OC)c1)[C@@H]1C(=O)N(C)C(=O)[C@@H]12", "Potency": "active: 20.6 µM"},
      {"smiles": "Cn1c(/C=N/c2nc3ccccc3[nH]2)nc2ccccc21", "Potency": "inconclusive: 20.6 µM [inhibitor, single point]"},
      {"smiles": "CCN1CCOC(=O)C1CC(=O)Nc1ccc(C)c(Cl)c1", "note": "(stereo not drawn)", "Potency": "active: 7.31 µM"},
      {"smiles": "O=C(Nc1cccc(Cl)c1)c1cccc(N2C(=O)C3CC=CCC3C2=O)c1", "note": "(stereo not drawn)", "Potency": "inconclusive: 16.4 µM [inhibitor, partial curve]"},
      {"smiles": "OCC1(Cc2ccc(Cl)cc2)CCN(Cc2ccc(F)c(F)c2)CC1", "Potency": "inconclusive: 20.6 µM [inhibitor, single point]"},
      {"smiles": "O=C(C1CCCCC1)N(Cc1cccnc1)c1nc2c(F)cc(F)cc2s1", "Potency": "active: 20.6 µM"},
      {"smiles": "COc1cccc(-c2ccc(NC(=O)C3CCCN(Cc4ccc(CO)o4)C3)cc2)c1", "note": "(stereo not drawn)", "Potency": "active: 16.4 µM"},
      {"smiles": "COc1ccc(CNC(=O)CCC2N=C3c4ccccc4N=C(SCc4ccc(F)cc4)N3C2=O)cc1", "note": "(stereo not drawn)", "Potency": "inconclusive: 25.9 µM [inhibitor, single point]"},
      {"smiles": "CCC(=O)OC1(C)C(=O)C=C2C=C(CCCC(=O)OC)OC=C2C1=O", "note": "(stereo not drawn)", "Potency": "inconclusive: 16.4 µM [inhibitor, single point]"},
      {"smiles": "CC(C)(C)NC(=O)c1cc(-c2ccccc2)n[nH]1", "activity change, negative = growth inhibition": "inactive: -6.62%"},
      {"smiles": "Cc1ccccc1-c1nc2scc(CCNC(=O)C(=O)Nc3ccc(F)cc3F)n2n1", "Potency": "inconclusive: 29.1 µM [inhibitor, single point]"},
      {"smiles": "CN1CCN(C2(CNC(=O)c3ccc([N+](=O)[O-])cc3)CCCCC2)CC1", "activity change, negative = growth inhibition": "inactive: -7.03%"},
      {"smiles": "Cc1cccc(C(=O)N2CCCC(CCC(=O)N3CCN(c4ccccn4)CC3)C2)c1C", "note": "(stereo not drawn)", "Potency": "inconclusive: 20.6 µM [inhibitor, single point]"},
      {"smiles": "Cc1cc(C)nc(NS(=O)(=O)c2ccc(NC(=O)c3cc(=O)c4ccc(C)c(C)c4o3)cc2)n1", "activity change, negative = growth inhibition": "inactive: -16.9%"},
      {"smiles": "C[n+]1ccc(/C=C/c2c[nH]c3ccccc23)cc1", "Potency": "active: 1.03 µM"},
      {"smiles": "O=C(NCc1ccco1)C(c1ccccc1)N(C(=O)Cc1cccs1)c1ccccc1F", "note": "(stereo not drawn)", "Potency": "inconclusive: 25.9 µM [inhibitor, single point]"},
      {"smiles": "O=c1c(Cl)c(NCc2ccco2)cnn1C12CC3CC(CC(C3)C1)C2", "Potency": "inconclusive: 16.4 µM [inhibitor, single point]"},
      {"smiles": "Cc1cc(C)nc(/N=C(\\N)Nc2cc([N+](=O)[O-])ccc2C)n1", "Potency": "inconclusive: 29.1 µM [inhibitor, single point]"},
      {"smiles": "Cc1ccc(Cn2nc(C)c(NC(=O)CSc3n[nH]c(C)c3[N+](=O)[O-])c2C)cc1", "Potency": "inconclusive: 23.1 µM [inhibitor, single point]"},
      {"smiles": "O=C(CN1CCN(C/C=C/c2ccccc2)CC1)Nc1ccccc1C(=O)NC1CC1", "Potency": "inconclusive: 29.1 µM [inhibitor, single point]"},
      {"smiles": "CCCn1c(CCC(=O)Nc2cccc(C)c2C)nc2cccnc21", "activity change, negative = growth inhibition": "inactive: -29.5%"},
      {"smiles": "CC(=O)Oc1ccc2c(c1)OC(c1ccccc1)CC21CC(C)(C)NC(=S)N1", "note": "(stereo not drawn)", "Potency": "active: 16.4 µM"},
      {"smiles": "CC(C)NS(=O)(=O)c1ccc(OCC(=O)Nc2ccc3c(c2)OCO3)c(Cl)c1", "Potency": "inconclusive: 16.4 µM [inhibitor, single point]"},
      {"smiles": "COc1cccc(NC(=O)C(Sc2nc3ccccc3c(=O)n2CC(C)C)c2ccccc2)c1", "note": "(stereo not drawn)", "activity change, negative = growth inhibition": "inactive: -22.3%"},
      {"smiles": "C=Cc1ccc(Cn2c(C(=O)O)c(CNCCc3ccccc3)c3ccc(C)cc32)cc1", "Potency": "inconclusive: 25.9 µM [inhibitor, single point]"},
      {"smiles": "COc1cc(NS(=O)(=O)c2ccc3[nH]c4c(c3c2)CCCC4)cc(OC)c1OC", "Potency": "active: 0.92 µM"}
    ]}
  ]
}
